This test deals with T1, Drebrin 1-300 (Homo sapiens, UniProt Q16643).
T1 chain: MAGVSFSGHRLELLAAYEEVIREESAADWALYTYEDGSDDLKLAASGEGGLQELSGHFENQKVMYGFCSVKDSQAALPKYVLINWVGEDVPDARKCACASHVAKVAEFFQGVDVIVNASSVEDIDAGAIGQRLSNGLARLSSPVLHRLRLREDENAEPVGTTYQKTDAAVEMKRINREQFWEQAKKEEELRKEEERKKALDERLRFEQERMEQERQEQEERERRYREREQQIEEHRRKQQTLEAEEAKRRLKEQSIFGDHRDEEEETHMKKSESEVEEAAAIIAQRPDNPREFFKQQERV
As to the kind of experiment: NMR.

For one molecule, Kd results are on record in article PMC4900556 (2016).

Values joined by “and” are separate entries in the source; they are usually repeats but may differ in a detail not shown here. Equal values may be shown once.

As a reminder, the Kd is a measure of binding affinity in units of concentration. Lower therefore signals a tighter complex.

B1: Connexin43 CTD (protein)
chain: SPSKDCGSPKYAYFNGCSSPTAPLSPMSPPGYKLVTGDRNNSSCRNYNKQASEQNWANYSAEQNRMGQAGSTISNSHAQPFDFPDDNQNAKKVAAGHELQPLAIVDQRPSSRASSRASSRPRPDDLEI
As to B1, the Kd is 279 µM and 344 µM and 283 µM.
